Measurements as given in article PMC4336329 (PLoS ONE, 2015).
The whole screen tested about 310,000 compounds, of which about 2,200 (0.71%) showed an effect of 50% or more. The effect is printed as a negative number. This is one part of the list.

biological target: human ether-à-go-go-related gene (hERG) potassium channel (human, UniProt Q12809); assay: primary screen, population patch clamp on CHO cells stably expressing hERG
Sequence (Q12809 whole entry, looked up): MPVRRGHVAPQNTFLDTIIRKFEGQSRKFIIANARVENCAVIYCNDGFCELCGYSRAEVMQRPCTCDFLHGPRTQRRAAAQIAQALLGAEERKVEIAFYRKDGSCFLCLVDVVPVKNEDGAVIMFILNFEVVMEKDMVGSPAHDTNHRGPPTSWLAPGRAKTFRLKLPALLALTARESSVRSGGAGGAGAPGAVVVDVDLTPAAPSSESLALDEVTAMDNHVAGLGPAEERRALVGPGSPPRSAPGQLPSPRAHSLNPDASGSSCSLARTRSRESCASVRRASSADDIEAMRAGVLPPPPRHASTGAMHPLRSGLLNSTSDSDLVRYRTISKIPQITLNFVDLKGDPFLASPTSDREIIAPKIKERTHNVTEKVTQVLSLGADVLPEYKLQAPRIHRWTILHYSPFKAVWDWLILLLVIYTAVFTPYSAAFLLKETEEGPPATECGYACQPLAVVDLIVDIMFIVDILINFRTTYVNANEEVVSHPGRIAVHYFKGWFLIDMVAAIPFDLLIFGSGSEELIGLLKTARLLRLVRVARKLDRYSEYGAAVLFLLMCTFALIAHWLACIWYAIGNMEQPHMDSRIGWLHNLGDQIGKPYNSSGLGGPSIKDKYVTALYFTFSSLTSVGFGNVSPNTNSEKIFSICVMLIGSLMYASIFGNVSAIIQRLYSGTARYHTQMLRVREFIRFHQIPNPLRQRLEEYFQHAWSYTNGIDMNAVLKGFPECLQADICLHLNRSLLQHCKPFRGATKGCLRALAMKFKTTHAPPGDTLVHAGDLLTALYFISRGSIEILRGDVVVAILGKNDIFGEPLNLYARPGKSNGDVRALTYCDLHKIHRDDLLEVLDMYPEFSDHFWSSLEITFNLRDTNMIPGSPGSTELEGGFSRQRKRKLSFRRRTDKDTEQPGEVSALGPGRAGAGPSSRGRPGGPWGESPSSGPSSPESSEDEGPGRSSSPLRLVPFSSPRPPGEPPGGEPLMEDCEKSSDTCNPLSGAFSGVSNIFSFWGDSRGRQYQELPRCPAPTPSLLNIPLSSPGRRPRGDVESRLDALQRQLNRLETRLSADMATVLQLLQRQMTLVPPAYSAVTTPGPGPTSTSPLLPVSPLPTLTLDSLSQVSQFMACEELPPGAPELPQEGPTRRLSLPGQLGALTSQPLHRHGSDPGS

Compound	hERG current change (%, negative = inhibition) at 1uM
Cc1oc(-c2ccccc2Cl)nc1CSc1nc2c(c(=O)[nH]1)CCCC2	8.24%
Cc1cc(C)c(S(=O)(=O)N2CCCCC2CCNC(=O)C(=O)NCCN2CCOCC2)c(C)c1 (centres unmarked)	6.75%
Cc1nccn1S(=O)(=O)c1cc([N+](=O)[O-])ccc1Cl	6.77%
Cn1c(Oc2ccc(F)cc2F)c(C=O)c2ccccc21	6.16%
COc1ccc2[nH]c(=O)c(CNc3ccc(C)c(C)c3)cc2c1	6.61%
CN(CCCC1CCCC1)C(=O)c1cc(COc2ccc(F)c(F)c2)on1	12.9%
Fc1ccc(N2CCN(c3nnnn3-c3ccccc3)CC2)cc1	10.5%
CCOC(=O)C1(Cc2cccc(OC)c2)CCN(Cc2ccc(C)s2)CC1	-53.1%
CC(C)c1ccc(NC(=O)N2CCc3ccccc3C2)cc1	10.1%
O=C(Nc1cccc(S(=O)(=O)C(F)F)c1)c1ccc(S(=O)(=O)N2CCCC2)cc1	8.32%
Cn1c(=O)c2c(nc(Cl)n2CC(=O)N2CCCCC2)n(C)c1=O	22.7%
O=C1c2ccccc2C(=O)N1CCCOc1ccccc1	12.8%
O=C(NCCCn1ccnc1)/C(=C\c1cccnc1)NC(=O)c1ccccc1F	8%
Cc1ccc(C2CC(=O)Nc3cc4c(cc32)OCO4)o1 (centres unmarked)	9.99%
CC(C)(C)NC(=O)C(=O)NNC(=O)COc1ccccc1	-8.11%
CN1C(=O)c2ccc(NC(=O)C3CC3)cc2C1=O	13.7%
Nc1nonc1NC(=O)NN=C1CCCCC1	0.561%
Cc1[nH]c2ccccc2c1/C=N/NC(=O)CCC(=O)NCc1ccccc1	13.7%
Cc1cccn2c(=O)c3cc(C(=O)N4CC(C)CC(C)C4)sc3nc12 (centres unmarked)	12.4%
O=C(CN1C(=O)C(=O)N(Cc2ccccc2)C1=O)Nc1ccc(OC(F)F)cc1	10.2%
Cc1cc(=O)[nH]c(NCc2ccccc2)n1	5.39%
O=C(NCc1cc(C(F)(F)F)cc(C(F)(F)F)c1)C1CC(c2ccc(C(F)(F)F)cc2)=NO1 (centres unmarked)	18.6%
Cn1cc(SCC(N)=O)c2ccccc21	4.32%

Compound	hERG current change (%, negative = inhibition) at 1uM
COc1cc2cc(C(=O)N/N=C/c3ccc(F)cc3)[nH]c2cc1OC	7.96%
COc1ccc2[nH]c3c(N4CC(C)OC(C)C4)ncnc3c2c1 (centres unmarked)	6.22%
O=C(O)c1ccc(N2C(=O)c3ccc(C(=O)c4cccc([N+](=O)[O-])c4)cc3C2=O)cc1	1.43%
CCOC(=O)c1cnc2c(OC)cccc2c1N1CCN(c2ccccn2)CC1	-8.21%
Cc1ccc(OC(=O)c2ccc(Br)o2)cc1	6.59%
O=C(Nc1ccccc1F)c1ccn[nH]1	17.9%
COc1cccc(C(=O)CN2CCN(S(=O)(=O)c3ccc(Br)cc3)CC2)c1	2.98%
COC(=O)Nc1nn(-c2ccc(Cl)cc2)c(=O)c(C#N)c1C	-6.47%
COc1cc2c(cc1OC)C(C)N(C(=O)c1cc3c(=O)oc4ccc(C)cc4c3s1)CC2 (centres unmarked)	13.7%
Cc1ccc(-n2c(-c3ccncc3)n[nH]c2=S)cc1	13.4%
CC(=O)c1cn(CC(=O)Nc2ccccc2)c2ccccc12	8.37%
Cc1ccc(S(=O)(=O)/N=C(/Nc2nc(C)cc(C)n2)N2CCOCC2)cc1	15.8%
O=C(CSCc1ccc(F)cc1)Nc1ccccc1	-3.29%
COc1cccc(/C=N/NC(=S)Nc2cccc(S(=O)(=O)N(C)C)c2)c1	11.8%
O=C1CC(N2CCN(Cc3ccccc3)CC2)C(=O)N1 (centres unmarked)	16.4%
O=C1N(c2ccc(Cl)c(Cl)c2)CN(Cc2ccccc2)CN1n1cnnc1	6.92%
O=C(Cc1c(O)c2ccccc2[nH]c1=O)OC1CCCCC1	20.3%
O=c1c2ccccc2nc(/C=C/c2ccc(O)cc2)n1-c1ccc(O)cc1	5.58%
CCNC(=O)NC(=O)C(C)OC(=O)c1oc2ccccc2c1CSC1CCCCC1 (centres unmarked)	-0.593%
CCN1CCCC1CNC(=O)c1cn(CC)c2ccc(S(=O)(=O)N3CCCCCC3)cc2c1=O (centres unmarked)	-36.6%
O=C(NCC1CCN(C(=O)c2c(F)c(F)c(F)c(F)c2F)CC1)c1c(F)c(F)c(F)c(F)c1F	4.05%
Cc1cccc(NCc2ccccc2OCc2ccccc2F)c1	11.2%
COc1cc(Br)ccc1C1CC(=O)C(C)C(c2ccc(Br)cc2OC)N1 (centres unmarked)	14.1%

Compound	hERG current change (%, negative = inhibition) at 1uM
O=c1[nH]c2ccccc2n2c(-c3ccccc3)nnc12	8.99%
CCOc1ccc(CNC(=O)C2CCN(S(=O)(=O)c3ccc4c(c3)CCCC(=O)N4)CC2)cc1	11%
Cl.O=S(=O)(c1ccc2ccccc2c1)N1CCN(CCO)CC1	20.7%
COc1ccc(S(=O)(=O)Nc2ccc(C(F)(F)F)cc2)cc1OC	10%
COc1ccccc1OCc1ccc(C(=O)N2CCN3CCCC3C2)cc1 (centres unmarked)	6.51%
Cl.c1ccc(-n2ncc3c(NCCN4CCCCC4)ncnc32)cc1	5%
CC1CCCCC1NC(=O)CCNS(=O)(=O)c1cc(Br)cnc1N (centres unmarked)	15.2%
Cc1cc(CNCc2c(C(=O)N3CCCCCCC3)nc3ccc(Cl)cn23)nn1C	9.15%
c1ccc(Cn2nnnc2C(c2ccccn2)N2CCOCC2)cc1 (centres unmarked)	16%
CSCC[C@H](NC(=O)OC(C)(C)C)C(=O)N/N=C/c1cccc2cccnc12	4.99%
CCOC(=O)c1c(NS(=O)(=O)c2cccc(OC)c2)sc2c1CCC2	-9.79%
O=C1CCCN1c1ccc(C(=O)N(Cc2nnc(-c3ccccc3Cl)o2)C2CC2)cc1	12%
CC(=O)c1ccccc1NC(=O)Cn1c(=O)cnc2ccccc21	12.5%
COc1ccc(N2C(=O)C3CCCN3C2c2ccc(C)o2)cc1 (centres unmarked)	8.61%
Cn1c(O)c(/C=C2\C=Nc3ccc(Br)cc32)c(=O)n(C)c1=O	8.69%
CC(C)(C)OC(=O)NCCCC[C@H](NC(=O)c1[nH]cnc1C(=O)Nc1ccc(Cl)cc1)C(=O)OC(C)(C)C	15.5%
CCSc1nnc(NC(=O)CSC2=NCCS2)s1	8.65%
O=C(Nc1nnc(-c2ccccc2F)s1)C1CCN(S(=O)(=O)c2ccc(Cl)cc2)CC1	15.3%
COc1cccc(CN2CCC(Oc3ccc(C(=O)N4CCCCC4)cc3)CC2)c1	-0.592%
COc1ccccc1NC(=S)N(Cc1ccco1)Cc1cc2ccc(C)c(C)c2[nH]c1=O	-4.79%
CCCCSc1nnc2c(n1)[nH]c1ccccc12	7.72%
O=C(c1ccc(F)cc1)N(C(=O)c1ccc(F)cc1)c1ncccn1	6.64%
O=C(CN1CCCCC1)c1c[nH]c2ccccc12	13.7%

Compound	hERG current change (%, negative = inhibition) at 1uM
CCN(CC)S(=O)(=O)c1cc(NC(=O)COC(=O)CCC(=O)c2cccs2)ccc1C	14.2%
O/N=C/Cc1[nH]c2ccccc2c1-c1ccccc1	8.87%
CCc1ccccc1NC(=O)CN1CCN(CC(=O)Nc2ccc(-c3ccccc3)cc2)CC1	-7.45%
Cc1ccc2nc(-c3ccncc3)c(Nc3ccccc3)n2c1	11.2%
COCc1nc2sc3c(c2c(=O)[nH]1)CCCC3	17.5%
Cn1nccc1C(=O)Nc1ccc(Cl)cc1	4.84%
CN(CCO)C(=O)C(c1ccccc1)c1ccccc1	11.8%
O=C(O)c1ccc(/C=C2\SC(=S)N(NC(=O)c3ccccc3)C2=O)cc1	10.6%
COc1ccc(NS(=O)(=O)c2cc(NC(=O)c3cnccn3)ccc2N2CCCC2)cc1	0.752%
COc1ccccc1CN=c1c([N+](=O)[O-])nn(-c2ccc3c(c2)OCCO3)n1O	4.68%
N#CCc1nn(-c2ccccc2)c(N)c1C#N	3.38%
CCOC(=O)c1sc(-c2ccc(C(F)(F)F)cc2)nc1O	13%
NS(=O)(=O)c1ccc(CCNC(=O)CN2C(=O)COc3ccc(S(=O)(=O)N4CCCC4)cc32)cc1	12.2%
COc1ccc(-c2nc3c4ccccc4ccn3c2C=O)cc1	22.2%
CC(Sc1nc2scc(-c3ccccc3)c2c(=O)[nH]1)C(=O)NC(N)=O (centres unmarked)	8.85%
Cc1ccc(NC(=O)COc2ccc(C3SCCS3)cc2)cc1	1.47%
CCOc1ccccc1C(=O)OCC(=O)NCCc1ccc(OC)cc1	-0.681%
Cc1ccc(C)c(/C=C/C(=O)c2ccccc(=O)c2O)c1	-2.1%
Brc1cc2c(cc1COc1ccc(-c3nn[nH]n3)cc1)OCO2	8.02%
Cn1c(=O)c2c(nc(NCc3ccc4c(c3)OCO4)n2Cc2ccccc2)n(C)c1=O	5.61%
